Biological target: T1, ASPP2_(905–1128) (human, UniProt Q13625 905-1128)
T1 sequence (looked up): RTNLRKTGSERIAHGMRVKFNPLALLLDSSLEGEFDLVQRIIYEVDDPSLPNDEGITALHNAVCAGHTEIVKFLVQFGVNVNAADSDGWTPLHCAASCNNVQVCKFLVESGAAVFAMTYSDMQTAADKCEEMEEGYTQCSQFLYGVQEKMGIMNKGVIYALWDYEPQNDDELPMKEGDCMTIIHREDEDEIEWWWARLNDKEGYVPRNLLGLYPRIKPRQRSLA
Assay: native gel or EMSA

binding result: binds
B1: p53 DBD ([…]) (domain or fragment)
chain: not shown
